Reference: paper PMC12820563
This is one part of the list. The list includes weakly bound sequences.

Molecular target: T1, MBP-FoxP3dN (UniProt Q99JB6)
T1 sequence: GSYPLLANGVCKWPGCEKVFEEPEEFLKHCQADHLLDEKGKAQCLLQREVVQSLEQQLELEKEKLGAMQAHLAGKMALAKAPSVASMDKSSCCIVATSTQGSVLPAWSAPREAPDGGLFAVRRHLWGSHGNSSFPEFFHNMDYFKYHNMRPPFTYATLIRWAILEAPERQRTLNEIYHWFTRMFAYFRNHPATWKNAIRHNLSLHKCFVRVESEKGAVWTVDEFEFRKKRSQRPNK
Experiment: PD-seq (MBP pull-down with sequencing)
Settings: 20 mM Tris-HCl pH 7.5, 100 mM NaCl, 1.5 mM MgCl2, 0.4 uM protein, 0.1 uM dsDNA library, 30 min, room temperature, amylose pull-down; high values mean tight binding; double strand, one strand shown

| Sequence | binding signal (RPM ratio (pull-down/input)) |
| --- | --- |
| GATGATTGTTCTCCCAGCTGATGAATTCGTGATATCGAGTAAACAAATTTTCCTAATCTTTCTGTTCAAGCGCCATCTAC | 0.591 |
| GATGATTGTTCTCCCAGCTGATGAATTCACACTCTCGAGTAAACAAATTTTCCTAATCTTTCTGTTCAAGCGCCATCTAC | 0.447 |
| GATGATTGTTCTCCCAGCTGATGAATTAATGGTATCGAGTAAACAAATTTTCCTAATCTTTCTGTTCAAGCGCCATCTAC | 0.813 |
| GATGATTGTTCTCCCAGCTGATGAATTAGCTTGATCGAGTAAACAAATTTTCCTAATCTTTCTGTTCAAGCGCCATCTAC | 0.764 |
| GATGATTGTTCTCCCAGCTGATGAATTCCACCAATCGAGTAAACAAATTTTCCTAATCTTTCTGTTCAAGCGCCATCTAC | 0.304 |
| GATGATTGTTCTCCCAGCTGATGAATTATACTTCTCGAGTAAACAAATTTTCCTAATCTTTCTGTTCAAGCGCCATCTAC | 0.492 |
| GATGATTGTTCTCCCAGCTGATGAATTTGATCTATCGAGTAAACAAATTTTCCTAATCTTTCTGTTCAAGCGCCATCTAC | 0.475 |
| GATGATTGTTCTCCCAGCTGATGAATTGGTAAATTCGAGTAAACAAATTTTCCTAATCTTTCTGTTCAAGCGCCATCTAC | 0.569 |
| GATGATTGTTCTCCCAGCTGATGAATTCGGGTATTCGAGTAAACAAATTTTCCTAATCTTTCTGTTCAAGCGCCATCTAC | 0.921 |
| GATGATTGTTCTCCCAGCTGATGAATTGCAGCGTTCGAGTAAACAAATTTTCCTAATCTTTCTGTTCAAGCGCCATCTAC | 1.6 |
| GATGATTGTTCTCCCAGCTGATGAATTGAATGACTCGAGTAAACAAATTTTCCTAATCTTTCTGTTCAAGCGCCATCTAC | 0.545 |
| GATGATTGTTCTCCCAGCTGATGAATTACGGCGATCGAGTAAACAAATTTTCCTAATCTTTCTGTTCAAGCGCCATCTAC | 0.513 |
| GATGATTGTTCTCCCAGCTGATGAATTCGGCCGCTCGAGTAAACAAATTTTCCTAATCTTTCTGTTCAAGCGCCATCTAC | 1.06 |
| GATGATTGTTCTCCCAGCTGATGAATTAATAGGCTCGAGTAAACAAATTTTCCTAATCTTTCTGTTCAAGCGCCATCTAC | 0.372 |
| GATGATTGTTCTCCCAGCTGATGAATTGGCGGTCTCGAGTAAACAAATTTTCCTAATCTTTCTGTTCAAGCGCCATCTAC | 0.497 |
| GATGATTGTTCTCCCAGCTGATGAATTCTAGGGCTCGAGTAAACAAATTTTCCTAATCTTTCTGTTCAAGCGCCATCTAC | 0.259 |
| GATGATTGTTCTCCCAGCTGATGAATTTAACAACTCGAGTAAACAAATTTTCCTAATCTTTCTGTTCAAGCGCCATCTAC | 0.454 |
| GATGATTGTTCTCCCAGCTGATGAATTGGCCAGGTCGAGTAAACAAATTTTCCTAATCTTTCTGTTCAAGCGCCATCTAC | 0.186 |
